# The other results are listed elsewhere or left out. Values were computed here from the reads of four pooled replicates and scatter widely.
# Target: T1, Pho4 (S. cerevisiae) (UniProt P07270)
# T1 sequence: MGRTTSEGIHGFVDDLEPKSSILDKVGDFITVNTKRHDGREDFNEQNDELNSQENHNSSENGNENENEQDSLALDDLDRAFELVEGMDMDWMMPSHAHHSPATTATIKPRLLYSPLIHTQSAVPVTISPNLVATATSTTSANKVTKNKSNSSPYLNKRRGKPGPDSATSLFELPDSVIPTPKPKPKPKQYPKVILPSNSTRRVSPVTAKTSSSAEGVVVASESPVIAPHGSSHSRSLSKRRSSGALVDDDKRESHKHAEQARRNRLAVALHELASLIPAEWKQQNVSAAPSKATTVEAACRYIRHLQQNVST
# Test: relative binding free energy (BET-seq); higher = weaker binding
# Conditions: reference: library average
row,Sequence,relative binding free energy [kcal/mol]
1,ATGCACACGTGGCGGT,0.04
2,AGAGTCACGTGAGGTT,0.27
3,AGGTTCACGTGTACTT,0.25
4,TGGCGCACGTGATTGG,-0.02
5,GTGAGCACGTGTGTGG,0.01
6,GTTAGCACGTGTTTGA,0.08
7,TGGATCACGTGAGAAT,0.34
8,TTGCACACGTGAGGGT,0.2
9,GATGGCACGTGGCTTT,0.09
10,GGATTCACGTGTTAGA,0.21
11,ATTGTCACGTGGAAGC,-0.01
12,GTGGTCACGTGCGGCA,0.21
13,GTCTGCACGTGTGTCG,0
14,CGCGTCACGTGTTGAG,0.11
15,TTGTGCACGTGAGAAT,0.41
16,GGGATCACGTGGGTGT,0.17
17,TGAGGCACGTGGGCTG,-0.28
18,TGTGCCACGTGTGGTA,-0.11
19,GTATTCACGTGCGTGA,0.13
20,GAATTCACGTGAGGAG,0.38
21,TTAAGCACGTGGCTGT,-0.05
22,ACATACACGTGGGTGT,-0.14
23,GGATGCACGTGTCCGT,0.16
24,TTGTGCACGTGGTTAT,-0.03
25,TGTATCACGTGGTATG,0.05

row,Sequence,relative binding free energy [kcal/mol]
1,CCGGGCACGTGGAGTT,-0.13
2,AGGTTCACGTGTGATA,0.38
3,GTGTTCACGTGGAAGC,0.35
4,ATTGACACGTGTAGGC,0.06
5,TTTGTCACGTGAACGG,0.4
6,CTGAGCACGTGGCGTT,-0.17
7,CCATACACGTGTGGGT,0.3
8,GCTCTCACGTGTGGGT,0.18
9,TTTTGCACGTGTTATT,0.14
10,ATACTCACGTGTGTCG,0.35
11,GAGGTCACGTGGAGAG,0.24
12,TGGAGCACGTGAACGG,0.13
13,CAAGGCACGTGGTGCG,-0.19
14,GTCTGCACGTGTTAGT,0.14
15,GTAAACACGTGGGTTT,0
16,TTGCGCACGTGTCAGG,-0.14
17,GAAGTCACGTGGGTCG,-0.08
18,TGATACACGTGGTCAG,-0.04
19,GTCGGCACGTGGCGGA,-0.04
20,GTTGACACGTGTAGAA,0.35
21,TTCATCACGTGGGGTG,0.12
22,GAGATCACGTGGTGGT,0.11
23,TAGTTCACGTGTGTCT,0.42
24,GGTTTCACGTGGTAGA,0.33
25,TGTAACACGTGAGGGC,0.24

row,Sequence,relative binding free energy [kcal/mol]
1,GTGAACACGTGTATTG,0.14
2,GTATGCACGTGTCGAG,0.03
3,GGTGGCACGTGGCGCT,-0.15
4,GGGTTCACGTGGAAAG,0.43
5,GGCTTCACGTGTCGGG,0.3
6,ATTTTCACGTGTTTGA,0.19
7,TGTGTCACGTGGGTCG,-0.01
8,GTGTACACGTGTAGGT,0.01
9,AATGGCACGTGACAGT,0
10,GAGTACACGTGGGTAG,0.02
11,TTTTTCACGTGTGGAG,0.35
12,ATATGCACGTGGTGAA,-0.16
13,GCTGGCACGTGGTGCT,-0.08
14,GGACTCACGTGTGGGA,0.04
15,TGAACCACGTGTGGTT,0.05
16,ATGTGCACGTGTAGTT,0.03
17,GTTGCCACGTGGTGCG,-0.12
18,GTTGTCACGTGGGCCA,0.05
19,TTTAACACGTGAAGTA,0.34
20,TGCGCCACGTGGGGAT,-0.12
21,TTAGGCACGTGATGGC,-0.12
22,TTTGGCACGTGCGATT,-0.1
23,AGATTCACGTGATAGT,0.26
24,GTTTACACGTGGTTTC,0.24
25,TTTGACACGTGCTCGT,0

row,Sequence,relative binding free energy [kcal/mol]
1,GTGAACACGTGGGATT,0.08
2,TGATACACGTGGGGCC,0.12
3,AGTGTCACGTGTGTAG,0.09
4,GTTAGCACGTGTGGGA,-0.05
5,GGGGGCACGTGTTTCT,0.01
6,ATGAACACGTGGGTGT,-0.25
7,AGGCTCACGTGGGGAG,0.21
8,TGCATCACGTGTGTTG,0.12
9,TTGCTCACGTGCGGGA,0.16
10,GGTTGCACGTGCAGTG,-0.08
11,ATTGACACGTGGACGT,-0.08
12,TGGATCACGTGTAGAT,0.46
13,CTTGTCACGTGGTCGA,0.04
14,GGCAGCACGTGTGTGA,-0.05
15,TTGAACACGTGTTTGT,0.06
16,TTTATCACGTGTGTCC,0.17
17,GCCGTCACGTGTTTTT,0.17
18,TGGAACACGTGGTTTT,0.02
19,TTGGTCACGTGTGTAC,0.19
20,TAGTTCACGTGCTCGG,0.27
21,TTTTCCACGTGTGGCG,0.17
22,TCGGTCACGTGGGTCT,-0.02
23,AGACACACGTGTGTTT,0.26
24,GTGTGCACGTGAATCG,0.2
25,GTTTTCACGTGCGTAA,0.22

row,Sequence,relative binding free energy [kcal/mol]
1,TTTACCACGTGGGGGA,-0.22
2,TTTAACACGTGAGTCG,0.18
3,CATGGCACGTGAGAGT,0.14
4,AGTGGCACGTGTGCTA,-0.07
5,CTAGTCACGTGGGTGA,-0.1
6,AAGGACACGTGAATTT,0.32
7,TGTGTCACGTGCGCTT,-0.01
8,TCAAGCACGTGGTGTA,-0.19
9,TGAAGCACGTGGCTTG,-0.08
10,TCAGTCACGTGGAAAT,0.37
11,TTGATCACGTGTATGA,0.08
12,GGGAACACGTGGTGGT,-0.02
13,ATGGGCACGTGAGCTT,-0.01
14,TACGTCACGTGGATTG,0.01
15,TGCAACACGTGCGGGG,-0.13
16,AACGTCACGTGATTGT,0.16
17,GGGGCCACGTGGAAGG,0.11
18,CTGAACACGTGTTGTT,0.05
19,AGTGTCACGTGGCATG,-0.08
20,GTCGTCACGTGGAGCG,0.16
21,ATTGTCACGTGTTCGC,0.05
22,CGAGGCACGTGTGTTT,-0.09
23,TGTGTCACGTGTCAGG,0.07
24,TATTACACGTGTCATG,0.17
25,GCCGTCACGTGGTGGG,0.06

row,Sequence,relative binding free energy [kcal/mol]
1,TTAAGCACGTGATGTT,-0.02
2,TGATTCACGTGTGATA,0.25
3,AGTGTCACGTGTGTCC,0
4,GGACGCACGTGATGGA,0.13
5,GACTTCACGTGTTGGT,0.45
6,GGAAACACGTGAGGGC,0.34
7,GTTCACACGTGTGGAG,0.11
8,GTTGTCACGTGAGGGG,0.43
9,TCGGTCACGTGAGTCT,0.19
10,TATAGCACGTGGTTGA,-0.09
11,GATGGCACGTGTTGAA,0.07
12,GCGATCACGTGTATGT,0.21
13,CGTCGCACGTGATGGG,-0.09
14,ATAAGCACGTGGTTAG,-0.28
15,GTAGACACGTGTAGTT,0.13
16,AACTTCACGTGAGGGT,0.18
17,GGCGTCACGTGATATG,0.31
18,GTTGGCACGTGAAGAG,0.13
19,CATCGCACGTGTGGGT,0.1
20,GATGGCACGTGGCACG,-0.11
21,TGGTGCACGTGTGCTT,-0.07

# — the BET-seq Pho4 binding data (Le et al. 2018)
